Assay results: the supplement of paper PMC3334620
Whole data set: some 33,000 sequences, median “E-score (-0.5 to 0.5)” near -0.012, cut for the highest 2% near 0.27. The list shows a part of the results.

target: T1, Vhr1 (UniProt P40522); experiment: PBM E-score (8-mer binding enrichment) (E-score (-0.5 to 0.5)); higher = stronger / more preferred TF binding; most listed sequences are background and not binding sites; details: protein concentration: 200 nM; construct: GST-full length
T1 sequence: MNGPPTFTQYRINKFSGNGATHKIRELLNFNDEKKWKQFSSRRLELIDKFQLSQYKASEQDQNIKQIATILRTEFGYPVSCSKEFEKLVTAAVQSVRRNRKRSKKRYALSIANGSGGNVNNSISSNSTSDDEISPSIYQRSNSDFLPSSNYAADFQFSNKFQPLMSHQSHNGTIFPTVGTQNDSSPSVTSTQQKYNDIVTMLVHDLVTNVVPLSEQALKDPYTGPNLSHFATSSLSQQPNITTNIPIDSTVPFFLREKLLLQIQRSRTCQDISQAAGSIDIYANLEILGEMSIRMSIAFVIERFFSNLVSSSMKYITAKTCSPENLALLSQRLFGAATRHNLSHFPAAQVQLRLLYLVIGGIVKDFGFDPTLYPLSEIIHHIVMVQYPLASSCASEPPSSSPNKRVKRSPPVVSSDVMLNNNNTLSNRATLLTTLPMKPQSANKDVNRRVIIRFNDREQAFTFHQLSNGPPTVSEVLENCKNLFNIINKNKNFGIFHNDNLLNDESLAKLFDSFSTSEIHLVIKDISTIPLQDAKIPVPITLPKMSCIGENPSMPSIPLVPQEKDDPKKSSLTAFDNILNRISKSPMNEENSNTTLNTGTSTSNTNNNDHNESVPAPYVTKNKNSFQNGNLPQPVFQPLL
Outline: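 Detection of bound protein used fluorescent anti-GST, with scans normalised by masliner. The proteins were GST-tagged yeast transcription factors applied at about 100-200 nM to universal all-10-mer Agilent arrays made double-stranded by primer extension. Each ungapped eight-base word, pooled with its reverse complement, was scored with an E-score from the Universal PBM Analysis Suite.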

Row | Sequence | PBM E-score
1 | CCACGCGA | 0.0212
2 | AAGATGAG | 0.00023
3 | GAGCTAGC | -0.0306
4 | CTCGCTAC | 0.0345
5 | GATAGTGA | 0.151
6 | CCAAGGGG | -0.063
7 | ACAGTCAG | 0.228
8 | ACAATTAA | 0.137
9 | CACCAACC | 0.0665
10 | CACACTGG | 0.0459
11 | AGAAGCGA | -0.0198
12 | CAATCAGA | -0.0178
13 | CGTGTCGC | 0.215
14 | AACACTTA | -0.0632
15 | CATGGATA | 0.146
16 | GCGAAAAC | -0.245
17 | CGTTAACA | -0.14
18 | CGGGAGTC | 0.386
19 | ATAACAGG | -0.0728
20 | AATAACGT | -0.127
21 | ACCGGCGC | 0.164
22 | ATGTTGTG | 0.0309
23 | CATTCTTA | -0.0305
24 | AGGAACTG | -0.205
25 | ACCGCCAA | -0.0122

Row | Sequence | PBM E-score
26 | TATTCCAA | -0.264
27 | TCGACCAA | -0.152
28 | GTGGCGTA | -0.0654
29 | GCGTAGAC | -0.214
30 | CTGTTACC | 0.0198
31 | TGAGATAA | 0.0124
32 | CATGCTGG | -0.00031
33 | CTCTGATC | -0.0383
34 | ATCCAAGA | 0.125
35 | CGCCAAAA | -0.0804
36 | ACTTCGAC | 0.0861
37 | GACGAGCA | -0.0703
38 | ACGACAGA | -0.195
39 | GTGGAATA | 0.114
40 | ACTCCGCG | 0.261
41 | GGACCGGA | 0.0379
42 | AGGACCGG | -0.314
43 | GAATATCA | 0.1
44 | CGTGAAGA | -0.0802
45 | CTGGACGC | -0.148
46 | ACCAAAAC | 0.128
47 | ACCGGGAG | -0.118
48 | ATGTCTCC | 0.175
49 | TAACACTA | 0.173
50 | CTACTTGA | -0.0569

Row | Sequence | PBM E-score
51 | ATGTGGAC | 0.0192
52 | GCTCTAGA | -0.133
53 | ATGGACGA | 0.178
54 | GGCAGCCA | 0.165
55 | CCTTCTTA | -0.152
56 | CAGATCCC | 0.0847
57 | ATAAGATC | -0.0282
58 | CACAACCG | 0.214
59 | CCGAGCTC | -0.0673
60 | AGCAACAT | -0.0984
61 | CCAGTGCA | 0.0186
62 | AGAAGATC | -0.173
63 | CCCCGGGA | -0.0204
64 | ACTACCCA | 0.107
65 | CCTGCGGC | -0.108
66 | AAACCACC | -0.0923
67 | AAAGAATG | 0.0281
68 | GACCTGGA | 0.0571
69 | AACCTCCT | -0.202
70 | GCCCCACC | 0.265
71 | AGTGGCCC | -0.0635
72 | CAATCCGA | 0.0215
73 | AGCCTAAC | -0.117
74 | AGGTCATA | 0.0299
75 | GGACTAAC | -0.00735

Row | Sequence | PBM E-score
76 | CAGTCGAG | -0.107
77 | ACATAAAT | 0.11
78 | CCTCGTCC | -0.128
79 | CCTCTGAA | -0.0939
80 | GGTATGAC | 0.231
81 | ATATGTTC | 0.217
82 | CCGTGCTC | 0.0127
83 | GGCCCAGA | -0.26
84 | AAGCCGAT | 0.045
85 | TTACAAAA | -0.0504
86 | ATAATCAC | 0.308
87 | GCTTGCTA | -0.124
88 | AGTTGAGA | -0.0128
89 | GGCGCCAA | -0.122
90 | CGTCAGTC | -0.0345
91 | AAGTTTCA | -0.0619
92 | CGCACACA | 0.134
93 | GGCGGCCA | -0.061
94 | TATACTAA | 0.00615
95 | ATATTCGG | 0.0186
96 | ATTTACGC | -0.239
97 | AGGCCCAG | -0.192
98 | GATAGCCA | -0.0927
99 | CATGCTAC | 0.0473
100 | ACTATATA | 0.274

Row | Sequence | PBM E-score
101 | CCCGACCC | 0.123
102 | ACCGAGTC | 0.254
103 | ACCGACAG | 0.102
104 | CTGATAAA | 0.0935
105 | GCACAGCA | 0.128
106 | AACAACGT | -0.0915
107 | GCACAGAA | -0.0823
108 | AGACGATC | -0.112
109 | ACTGGGAC | -0.0593
110 | CCGGAGTA | 0.0674
111 | CATACCAA | 0.152
112 | CTGCGTTC | 0.0655
113 | ACGTGCCA | -0.113
114 | ATCGTCTG | 0.125
115 | CCCGCGGG | 0.102
116 | GGACCGTA | -0.201
117 | CGTGTCAG | 0.037
118 | AAATTCCT | -0.23
119 | ATAGTTCG | 0.191
120 | CTGTGAAA | -0.053
121 | CAGGCTAG | -0.159
122 | ACGCACGA | 0.0415
123 | CATTGTAG | 0.15
124 | CTTGTTCC | -0.187
125 | ATTGTTTA | -0.0808

Row | Sequence | PBM E-score
126 | GAACACTA | -0.091
127 | AGGTATTG | 0.0621
128 | ACGACCTC | 0.247
129 | CCTCCAGC | -0.0494
130 | ATATACAT | 0.263
131 | GAAACTAC | -0.0549
132 | CGCTACGA | 0.104
133 | CGTGCCCC | -0.0873
134 | CACAGGAG | 0.0372
135 | CTCGAACC | -0.1
136 | CTGTGTGC | 0.177
137 | TAACAGTA | 0.113
138 | ATAGTAAC | 0.0117
139 | GGACGCAA | -0.194
140 | ATGCGTCC | -0.00865
141 | ACAGTCAA | 0.0811
142 | ACGTTACT | 0.0689
143 | CATTGTCG | 0.00973
144 | TCAAAGCA | -0.00828
145 | AACACAAA | -0.106
146 | GCGAGCTA | -0.0854
147 | AGAGTAAA | -0.0878
148 | CTAAACAA | -0.118
149 | ATCCCCCG | 0.139
150 | ACCAACCT | 0.05

Row | Sequence | PBM E-score
151 | CGAGGGGA | 0.0238
152 | CGTTAATC | 0.0766
153 | AGGTAAAT | -0.0693
154 | CGGGGCTC | 0.0123
155 | GGTGATAA | 0.0232
156 | GGGAATAC | -0.107
157 | GGATGCCA | -0.183
158 | GGTCAGTA | -0.0697
159 | ACAGTCTA | -0.108
160 | CCACTTGA | 0.0707
161 | TAGCACTA | -0.0111
162 | GCTATTAC | 0.0507
163 | CAGGAAAC | 0.0605
164 | AACTTACG | -0.186
165 | TTAATCAA | 0.0622
166 | CCGAGACC | 0.0957
167 | GTACTATA | 0.163
168 | GGGAAACC | -0.0128
169 | AAATCCGG | 0.0683
170 | GAACCGAA | -0.0623
171 | AAGTTGAC | -0.0187
172 | CATCACCC | 0.103
173 | GGAGCAAC | -0.106
174 | ACAGCGCT | 0.0728
175 | CAAAAGCA | -0.255

Row | Sequence | PBM E-score
176 | GTGAAAAC | -0.0962
177 | AGCGAAGC | -0.213
178 | AGCGATGC | -0.116
179 | GCGTGGCC | -0.157
180 | ATTGGTAA | -0.0186
181 | ACAGATGA | -0.0259
182 | AACACCCT | -0.00488
183 | ACGGGGAA | -0.0773
184 | AAACCAGA | 0.0998
185 | CTTCATCC | -0.117
186 | AGAATCAT | 0.323
187 | CTCGAGCA | -0.0747
188 | CGGCCTTA | -0.12
189 | ACAAGTGC | -0.0909
190 | ATCTCTGA | 0.0425
191 | CCTAACCG | -0.0949
192 | CAAAACGG | 0.106
193 | GCTCTTCC | -0.16
194 | AAACCGAC | 0.14
195 | ACTTGAAG | -0.00794
196 | ATTCATCG | 0.121
197 | CGTGCCGC | -0.0924
198 | ACACTGAG | 0.218
199 | TCATAAAA | 0.00438
200 | CCGCGGGC | 0.228

Row | Sequence | PBM E-score
201 | CTAAATGA | -0.0399
202 | AAGCCCTC | -0.203
203 | AAAGTGGT | 0.0656
204 | ACACATAC | 0.29
205 | ATCAAGCC | 0.0404
206 | GGACTGAA | -0.176
207 | CCAGTGTC | 0.0873
208 | AGCGGTTC | 0.00261
209 | ACACCTAA | 0.0791
210 | ACGGAATG | -0.133
211 | CAGAAACA | -0.0262
212 | GCAAACTA | 0.0776
213 | AATCCGAT | 0.187
214 | CCCTCATC | -0.0585
215 | CTGTAAAG | -0.268
216 | CATGCGAA | 0.161
217 | CAGTCCGA | 0.126
218 | CCGTGGAG | -0.0622
219 | CCTGCCCA | -0.0853
